# Assay results: PubChem BioAssay AID1159614 (National Center for Advancing Translational Sciences (NCATS), 2016)
# Out of some 45,000 compounds screened, about 65 (0.1%) were called active. Calls follow the shape of the dose curve; as a rule, active = well fitted activation curve with a large enough effect; inconclusive = small, poorly fitted or top-dose-only effect; inactive = no such curve, though single readings can be large or run the other way. This is one part of the list.
# Target: Galactocerebrosidase (Homo sapiens) (UniProt P54803)
# Test: A Novel Cell-Based Assay to Identify Small Molecules for B -Galactocerebrosidase; also: 0% is about no effect; nearly all actives have a fitted effect of over 65% in size
# Conditions: 145M-Twi-hGALC-G270D cells (Twitcher mouse brain line with human GALC G270D), HMU-beta-Gal fluorescence, 48 h; series mostly up to 57.5 µM; activation: at the top concentration
# Summary of the method: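 Fluorescence readout: HMU-β-gal cleavage by mutant GALC (0.1 mM final, citrate/phosphate pH 5.2 with 1 mg/mL taurocholate), stopped with carbonate/bicarbonate plus Triton X-100. Cells: murine Twitcher 145M-Twi expressing human G270D GALC; qHTS for activators.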
# UniProt P54803, sequence (P54803 whole entry, looked up): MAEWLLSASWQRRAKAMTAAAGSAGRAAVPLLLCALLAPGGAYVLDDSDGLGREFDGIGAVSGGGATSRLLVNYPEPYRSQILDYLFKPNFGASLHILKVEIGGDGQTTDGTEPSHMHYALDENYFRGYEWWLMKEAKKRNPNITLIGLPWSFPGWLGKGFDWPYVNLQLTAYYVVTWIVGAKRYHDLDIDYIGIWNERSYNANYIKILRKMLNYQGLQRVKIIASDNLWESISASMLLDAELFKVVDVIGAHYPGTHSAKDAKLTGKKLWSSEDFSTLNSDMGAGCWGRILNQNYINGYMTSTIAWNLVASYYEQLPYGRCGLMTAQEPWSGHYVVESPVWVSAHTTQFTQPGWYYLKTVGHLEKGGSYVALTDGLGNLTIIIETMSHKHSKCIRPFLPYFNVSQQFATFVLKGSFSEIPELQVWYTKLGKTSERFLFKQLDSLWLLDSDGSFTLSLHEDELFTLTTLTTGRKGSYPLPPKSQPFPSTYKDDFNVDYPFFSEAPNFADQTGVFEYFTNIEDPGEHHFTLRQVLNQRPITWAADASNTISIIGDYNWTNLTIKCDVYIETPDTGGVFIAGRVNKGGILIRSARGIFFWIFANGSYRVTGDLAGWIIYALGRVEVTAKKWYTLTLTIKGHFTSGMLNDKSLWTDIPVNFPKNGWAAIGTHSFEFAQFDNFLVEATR
row,SMILES,activation
1,Cc1cc(Cl)ccc1OCCSc1nnc(-c2cccs2)o1,inactive: -10.7%
2,O=C(CCNS(=O)(=O)c1ccc2c(c1)CCCC(=O)N2)NCc1ccc(Cl)cc1,inactive: -26.6%
3,COCCOC(=O)c1c(C)oc2c1cc(NS(=O)(=O)c1ccc(Cl)c(C)c1)c1ccccc12,inactive: -18.3%
4,Cc1c(-c2cccc(NC(=O)c3ccc(F)c(F)c3)c2)nc2ncccn12,inactive: -3.52%
5,Cc1nn(C)c2c1c(C(F)(F)F)cc(=O)n2C(C)C(=O)NCCc1ccc(Cl)cc1 (stereo unspecified),inactive: -26.7%
6,CCOC(=O)Cc1ccc(NC(=O)n2ncc3cc(Cl)ccc32)cc1,inactive: -5.9%
7,CCOC(=O)c1cnc2c(Cl)c(Cl)ccc2c1NCCN1CCOCC1,inactive: -10.6%
8,CNS(=O)(=O)c1ccc(NC(=O)c2cnn3c(C(F)F)cc(-c4ccccc4)nc23)cc1,inactive: -9.7%
9,N#Cc1ccc(C(=O)Nc2ccccc2-c2nc3ccccc3s2)c(F)c1,inactive: 6.54%
10,Cc1ccc(Oc2coc3cc(OCC(=O)NC4CCCCC4)ccc3c2=O)cc1,inactive: -2.05%
11,COc1ccc(OCc2ccc(-c3nc(C#N)c(NCc4ccccc4)o3)o2)cc1,inactive: -12.9%
12,O=C(NCC(c1ccc2c(c1)OCO2)N1CCN(c2ccc(F)cc2)CC1)c1cccc([N+](=O)[O-])c1 (stereo unspecified),inactive: -40.7%
13,c1ccc(C(O[C@H]2CCCN(CCc3ccc4c(c3)OCO4)C2)c2ccccc2)cc1,inactive: -8.54%
14,Cc1ccc2onc(CNC(=O)Nc3ccccc3C#N)c2c1,inactive: -18.7%
15,CCc1ccc(NC(=O)C2CCCN(c3nn4cc(-c5ccc(OC)cc5)nc4s3)C2)cc1 (stereo unspecified),inactive: -6.05%
16,CCOc1ccc(C2C(C(=O)OC)=C(C)NC3=C2C(=O)c2ccccc23)cc1OC (stereo unspecified),inactive: -27.8%
17,CN(C1CCCCC1)S(=O)(=O)c1ccc2c(c1)c(=O)c(C(=O)NCc1ccccc1Cl)cn2C,inactive: -13.8%
18,O=C(Nc1ccc(F)cc1Cl)C1CCN(c2ncnc3c2nc2n3CCCCC2)CC1,inactive: -18.9%
19,COc1ccc(Nc2ncnc3c2c(-c2ccccc2)cn3-c2ccc(C)c(Cl)c2)cc1OC,inactive: -6.35%
20,COc1cccc(CNC(=O)CCc2c(C)nc3c(c2C)c(=O)n(C)c(=O)n3C)c1,inactive: -6.37%
21,CCc1ccccc1NC(=O)CSc1ncccc1C(=O)O,inactive: -10.6%

row,SMILES,activation
1,Cc1ccc(-n2c3c(c(=O)[nH]c2=O)C(NS(=O)(=O)c2ccc(C)cc2)(C(F)(F)F)C(=O)N3)cc1 (stereo unspecified),inactive: -7.22%
2,COc1ccc2[nH]cc(CCNC(=O)Nc3cccc(F)c3)c2c1,inactive: -2.85%
3,CCOc1ccc(CN2C(=O)c3ccccc3Sc3ccc(C(=O)NCCc4ccccc4)cc32)cc1,inactive: -7.66%
4,CC(=O)c1ccc(NS(=O)(=O)c2cnc(N)nc2)cc1,inactive: 10%
5,Cc1cccc(NC(=O)CSC2=Nc3ccccc3C3=NC(CCC(=O)NCc4ccc(F)cc4)C(=O)N23)c1 (stereo unspecified),inactive: -13.5%
6,CCOc1ccccc1NC(=O)Cc1csc(COc2cccc(C)c2)n1,inactive: -13.7%
7,CC(=O)c1cccc(Nc2ncnc3c2cnn3C)c1,inactive: 2.54%
8,O=C(NCCc1ccc(Cl)cc1)c1ccc(Cn2c(=O)[nH]c3ccccc3c2=O)cc1,inactive: -26.4%
9,CCOc1ccccc1NC(=O)c1cc2cc(C)ccc2n1C,inactive: -16.5%
10,COC(=O)c1c(NC(=O)COc2c(C)cccc2C)sc2c1CCCC2,inactive: -11.7%
11,CC1CCN(S(=O)(=O)c2ccc(C(=O)Nc3nc4ccc(F)cc4s3)cc2)CC1,inactive: -9.16%
12,COc1ccccc1NC(=O)C1=C(C)Nc2nc(-c3ccco3)nn2C1c1ccccc1 (stereo unspecified),inactive: -14.5%
13,Cc1ccccc1NC(=O)c1c(NC(=O)c2ccncc2)sc2c1CCC(C(C)(C)C)C2 (stereo unspecified),inactive: -19.6%
14,CCc1ccc(NC(=O)C2CCC(CNS(=O)(=O)c3cccs3)CC2)cc1 (stereo unspecified),inactive: -3.28%
15,COc1ccc(-c2nc(SCC(=O)Nc3ccc4c(c3)OCO4)c(-c3ccccc3)[nH]2)cc1,inactive: -15.3%
16,COc1cccc(CNC(=O)c2ccc3c(c2)N(C)C(=O)C2CCCCN32)c1 (stereo unspecified),inactive: -18.5%
17,Cc1ccccc1OCc1cc(=O)n2c(-c3ccccc3)csc2n1,inactive: -5.82%
18,CC(C)CCNC(=O)c1cn(C)c2ccc(S(=O)(=O)N3CCCC3)cc2c1=O,inactive: -3.51%
19,CCOc1ccc(-c2cc3nc(C4CCN(C(=O)OC(C)(C)C)CC4)c(C(=O)Nc4ccc(C)c(F)c4)cn3n2)cc1,inactive: -11.1%
20,CCn1cc(C(=O)N2CCN(c3cc(Cl)ccc3C)CC2)c(=O)c2cc(S(=O)(=O)N3CCOCC3)ccc21,inactive: 0.257%
21,CCC(=O)N1CCc2cc(Br)cc(S(=O)(=O)N3CCC(C(=O)N(CC)CC)CC3)c21,inactive: -16.8%

row,SMILES,activation
1,COc1ccc(Nc2nc3c(S(=O)(=O)c4ccc(Br)cc4)nnn3c3ccsc23)c(OC)c1,inactive: -14.1%
2,CC1CCN(c2cc3c(cc2F)c(=O)c(S(=O)(=O)c2ccc(Cl)cc2)cn3C)CC1,inactive: -21%
3,Cc1ccc(CNc2oc(-c3ccc(COc4ccc(Cl)cc4)o3)nc2C#N)cc1,inactive: -8.98%
4,CCOC(=O)c1c(NC(=O)c2cc(-c3ccc(Cl)cc3)on2)sc2c1CCCC2,inactive: -15.8%
5,CNS(=O)(=O)c1cc(-c2nn3c(C)nnc3c3ccccc23)ccc1C,inactive: -10.9%
6,CCN1CCN(c2ncc3c(n2)CCN(Cc2sccc2C)C3)CC1,inactive: -13.2%
7,COc1cc(NC(=O)CC(C)S(=O)(=O)c2ccc3c(c2)CCN3C(C)=O)cc(OC)c1OC (stereo unspecified),inactive: -7.62%
8,O=C(CSc1nnc2scc(-c3ccc(Cl)cc3)n12)Nc1cccc(C(F)(F)F)c1,inactive: -27.3%
9,CCOc1ccc(Nc2nc(C)c(NC(=O)c3ccc(C)cc3)c(Nc3ccc(OCC)cc3)n2)cc1,inactive: 1.72%
10,COc1ccc(Cl)cc1NC(=O)c1cnc(SC)nc1-c1ccccc1,inactive: -9.62%
11,Cc1ccccc1NC(=O)C(=O)NCC1(c2ccccc2)CCCC1,inactive: -6.71%
12,CCc1ccc(C(c2ccccc2)c2c[nH]c3ccc(C)cc23)s1 (stereo unspecified),inactive: -18.8%
13,CN(CC(=O)Nc1ccc(Cl)cc1F)S(=O)(=O)c1ccc2c(c1)n(C)c(=O)c(=O)n2C,inactive: -7.91%
14,CC(C(=O)O)c1ccc(CC2CCCC2=O)cc1 (stereo unspecified),inactive: -8.61%
15,Cc1sc2ncn(CC(=O)N3CCN(c4ccccc4)CC3)c(=O)c2c1S(=O)(=O)N1CCN(c2ncccn2)CC1,inactive: 0.2%
16,CCc1cccc(-n2nnc(-c3nsc(NC(=O)c4ccc(C)cc4)n3)c2C)c1,inactive: -17.8%
17,Cc1ccc(NC(=O)CN(C)S(=O)(=O)c2cccc3cccnc23)cc1F,inactive: -6.84%
18,CCn1c(=O)c2cc(C(=O)N3CCN(c4cccc(OC)c4)CC3)sc2c2ccccc21,inactive: -7.05%
19,COc1ccc(Cl)cc1Nc1nc2ccc(C(=O)c3ccccc3)cc2n2cnnc12,inactive: -17.1%
